The values below come from the supplement of paper PMC11417369.

The list shows a part of the results.

In the test the test system is PfSIP2 AP2 domain 1 (GST-tagged). Put plainly: gcPBM binding intensity (ln(normalized median fluorescence intensity)); higher = stronger DNA binding. In short, it runs like this:
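Binding of GST-tagged P. falciparum DNA-binding domains, expressed in E. coli and used at about 25 μg on average, was carried out for 1 h in 1× PBS containing 1% milk, 0.2 mg/ml BSA, 0.5% salmon testes DNA and 0.03% Triton X-100. The target was an Agilent 4 × 180k array of primer-extended double-stranded 36-bp intergenic genomic probes plus negative controls, read with Alexa488 anti-GST antibody at 488 nm. Binding intensity is the highest Masliner-normalised natural-log median intensity across replicate spots of either probe orientation.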
As to “AATGACAACCTTGTCACACATATATATATATATATA [CACACA_site5977]”, the “gcPBM binding intensity (ln)” value was 9.44.

On to “TTTTTTATTTGACAAGCACACACTTAAATATATATA [CACACA_site3358]”, for which the “gcPBM binding intensity (ln)” value turned out to be 7.08. Consider “ATTTCTAGTTTAAGATGTACTTTAATAAAAATTATT [XGTACX_site4820]”, for which the “gcPBM binding intensity (ln)” value amounted to 7.17. Take “ATCTTTGGAAATTTATGTACTTATATTTATATTGTA [XGTACX_site6606]”: the “gcPBM binding intensity (ln)” value is 7.06.

On to “AAATATCAACAAAAATGTACAAATGTAAAAGAATAT [XGTACX_site4676]”, for which the “gcPBM binding intensity (ln)” value amounted to 7.18. For the sequence “AGGTTAAAAATAAATACACACATTTTATGTCTGTAT [CACACA_site996]”, the “gcPBM binding intensity (ln)” value worked out at 6.65. For “ACTATACAGTTATACACACACATATATATATAATAT [CACACA_site310]”, the “gcPBM binding intensity (ln)” value is 7.62. As to “TTTTTTTTTTAATAAAGTACATATAAATTACCTAAT [XGTACX_site4434]”, the “gcPBM binding intensity (ln)” value turned out to be 6.87. For “GAAATAATTTCATATACACACATATACATACATACA [CACACA_site1358]”, the “gcPBM binding intensity (ln)” value came out at 7.5.

Turning to “AAAAGAATATAAAGATACATTGTGATATGGGACAAA [CACACA_negctrl_site405]”, the “gcPBM binding intensity (ln)” value turned out to be 6.82. With TATATATATATTGAAGTGCAAAATACTGTACGTAAT, the “gcPBM binding intensity (ln)” value worked out at 8.77. In the case of “TTAATTCTACTTATTACACACATATTAATCAAAAAT [CACACA_site1478]”, the “gcPBM binding intensity (ln)” value is 7.25.

On to “TATATATATATAAACAGTACACAAATTGTAAATAAA [XGTACX_site8268]”, for which the “gcPBM binding intensity (ln)” value amounted to 8.9.

On to “TATATATATATATATATTGAAATTTATAATAATATT [TGCATGCA_negctrl_site407]”, for which the “gcPBM binding intensity (ln)” value was 9.4. For the sequence “AACATAGAAACGTTATGTACATATTGAAGGATATTA [XGTACX_site6015]”, the “gcPBM binding intensity (ln)” value came out at 7.37. Regarding “AAATATTTATACTATACACACCCAATTTAAAAAAAA [CACACA_site6669]”, the “gcPBM binding intensity (ln)” value is 6.99. As for “ATTTTTTTATGTACACAAAAAAAAAAAAAAATTTAA [CACACA_negctrl_site1028]”, the “gcPBM binding intensity (ln)” value came to 7.29. As to “ATATTATAATTAAAACGTACGTATTTATGAATTCAT [XGTACX_site1047]”, the “gcPBM binding intensity (ln)” value worked out at 7.2. Consider “TACATAAATTAAAACACACACACACTAAAAAAAAAA [CACACA_site7130]”, for which the “gcPBM binding intensity (ln)” value turned out to be 7.05. For “TATTAATTAAACCATACACACATAATTTTTTTATAA [CACACA_site843]” the value was 6.92; for “GTTAATATTTACTACACACACTTAAAATATGTATAT [CACACA_site4194]”, 7.09; for “TTTTCATTTTTCTTTACACACATATATTTATTTATA [CACACA_site7119]”, 7.24. For “ACCCATGATTGTTACAGTACTCTACTTTCTAATATA [XGTACX_site98]” the value was 7.44. On to “AAACTGTCGCTCATAAAGAAGAATGAAATACATTAA [TGCATGCA_negctrl_site60]”, for which the “gcPBM binding intensity (ln)” value is 7.04.

Regarding “ATATATGCATATTATACACACATATGTATATACATT [CACACA_site965]”, the “gcPBM binding intensity (ln)” value is 7.07.
